Experimental data reported in the supplement of paper PMC4967469.

Legend:
Assay in all cases: Viability of human cancer cell lines after 72 h of drug (GDSC screen)
I-BET-762 = compound: CCNC(=O)C[C@@H]1N=C(c2ccc(Cl)cc2)c2cc(OC)ccc2-n2c(C)nnc21 [I-BET-762]; conditions: top dose 20 µM; top dose inferred
Procedure: (§1)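 Human cancer cell lines in 384-well plates, medium with 10% serum, drug for 72 h over a 256-fold dose range (nine 2-fold or five 4-fold steps up to the top dose). Adherent lines were fixed and stained with the nucleic acid dye Syto60, suspension lines read with resazurin; signal relative to control wells, capped at 0 and 100%. One two-parameter sigmoid per drug and line, fitted in a mixed model over all curves with the slope shared within a line.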

KIN001-244 = compound: O=C(NC(COc1ccc2[nH]c(=O)[nH]c2c1)c1ccccc1)c1cccn(Cc2ccc(F)c(F)c2)c1=O [KIN001-244]; conditions: top dose 20 µM; top dose inferred
Procedure: as §1

AV-951 = compound: COc1cc2nccc(Oc3ccc(NC(=O)Nc4cc(C)on4)c(Cl)c3)c2cc1OC [AV-951]; conditions: top dose 0.128 µM; top dose inferred
Procedure: as §1

HG-6-64-1 = compound: CCN1CCN(Cc2ccc(NC(=O)c3ccc(C)c(/C=C/c4cnc5[nH]ccc5c4OC)c3)cc2C(F)(F)F)CC1 [HG-6-64-1]; conditions: top dose 5.12 µM; top dose inferred
Procedure: as §1

CAL-101 = compound: CC[C@H](Nc1ncnc2[nH]cnc12)c1nc2cccc(F)c2c(=O)n1-c1ccccc1 [CAL-101]
Procedure: as §1

PF-4708671 = compound: CCc1cncnc1N1CCN(Cc2nc3ccc(C(F)(F)F)cc3[nH]2)CC1 [PF-4708671]; conditions: top dose 10 µM; top dose inferred
Procedure: as §1

Cell Line | AUC (CAL-101) | IC50 (CAL-101) | further results
SNU-475 (liver, adherent) | – | – | AUC (I-BET-762): 0.962; IC50 (I-BET-762): > 20 µM; AUC (KIN001-244): 0.882; IC50 (KIN001-244): 17 µM; AUC (AV-951): 0.972; IC50 (AV-951): > 0.128 µM; AUC (HG-6-64-1): 0.953; IC50 (HG-6-64-1): > 5.12 µM
TE-12 (oesophagus, suspension, top dose 20 µM) | 0.935 | > 20 µM | –
TE-15 (oesophagus, suspension, top dose 20 µM) | 0.933 | > 20 µM | –
TE-441-T (rhabdomyosarcoma, adherent, top dose 20 µM) | 0.972 | > 20 µM | –
TGBC1TKB (biliary tract, adherent, top dose 20 µM) | 0.988 | > 20 µM | –
TGBC11TKB (stomach, adherent, top dose 20 µM) | 0.987 | > 20 µM | –
TGBC24TKB (biliary tract, adherent, top dose 20 µM) | 0.98 | > 20 µM | –
TGW (neuroblastoma, adherent, top dose 20 µM) | 0.959 | > 20 µM | –
THP-1 (acute myeloid leukaemia, suspension) | – | – | AUC (I-BET-762): 0.85; IC50 (I-BET-762): 12.9 µM; AUC (PF-4708671): 0.935; IC50 (PF-4708671): > 10 µM; AUC (KIN001-244): 0.843; IC50 (KIN001-244): 12.1 µM; AUC (HG-6-64-1): 0.878; IC50 (HG-6-64-1): 4.31 µM
TK10 (kidney, adherent, top dose 20 µM) | 0.923 | > 20 µM | –
TK (B-cell lymphoma, suspension, top dose 20 µM) | 0.93 | > 20 µM | –
TMK-1 (stomach, adherent, top dose 20 µM) | 0.984 | > 20 µM | –
TOV-21G (ovary, adherent, top dose 20 µM) | 0.803 | 11 µM | –
TOV-112D (ovary, adherent, top dose 20 µM) | 0.972 | > 20 µM | –
TT2609-C02 (thyroid, adherent, top dose 20 µM) | 0.97 | > 20 µM | –
TT (thyroid, adherent, top dose 20 µM) | 0.975 | > 20 µM | –
TUR (B-cell lymphoma, suspension, top dose 20 µM) | 0.917 | > 20 µM | –
TYK-nu (ovary, adherent, top dose 20 µM) | 0.984 | > 20 µM | –
U031 (kidney, adherent, top dose 20 µM) | 0.905 | > 20 µM | –

Cell Line | AUC (CAL-101) | IC50 (CAL-101) | further results
U251 (glioma, adherent, top dose 20 µM) | 0.925 | > 20 µM | –
U-2-OS (osteosarcoma, adherent, top dose 20 µM) | 0.972 | > 20 µM | –
U-87-MG (glioma, adherent, top dose 20 µM) | 0.93 | > 20 µM | –
U-118-MG (glioma, adherent, top dose 20 µM) | 0.982 | > 20 µM | –
U-698-M (B-cell leukaemia, suspension, top dose 20 µM) | 0.987 | > 20 µM | –
UACC-62 (melanoma, adherent, top dose 20 µM) | 0.973 | > 20 µM | –
UACC-257 (melanoma, adherent, top dose 20 µM) | 0.941 | > 20 µM | –
UACC-812 (breast, adherent, top dose 20 µM) | 0.958 | > 20 µM | –
UACC-893 (breast, adherent, top dose 20 µM) | 0.983 | > 20 µM | –
UM-UC-3 (bladder, adherent, top dose 20 µM) | 0.908 | > 20 µM | –
UMC-11 (lung carcinoid, adherent, top dose 20 µM) | 0.986 | > 20 µM | –
UWB1.289 (ovary, adherent, top dose 20 µM) | 0.949 | > 20 µM | –
VA-ES-BJ (soft tissue, adherent, top dose 20 µM) | 0.982 | > 20 µM | –
VAL (B-cell lymphoma, suspension, top dose 20 µM) | 0.858 | 16.6 µM | –
VCaP (prostate, adherent, top dose 20 µM) | 0.954 | > 20 µM | –
VM-CUB-1 (bladder, adherent, top dose 20 µM) | 0.988 | > 20 µM | –
VMRC-MELG (melanoma, adherent, top dose 20 µM) | 0.985 | > 20 µM | –
VMRC-RCW (kidney, adherent) | – | – | AUC (I-BET-762): 0.982; IC50 (I-BET-762): > 20 µM; AUC (KIN001-244): 0.947; IC50 (KIN001-244): > 20 µM; AUC (AV-951): 0.989; IC50 (AV-951): > 0.128 µM; AUC (HG-6-64-1): 0.767; IC50 (HG-6-64-1): 1.77 µM
VMRC-RCW (kidney, adherent, top dose 20 µM) | 0.958 | > 20 µM | –

Cell Line | AUC (CAL-101) | IC50 (CAL-101) | further results
VMRC-RCZ (kidney, adherent, top dose 20 µM) | 0.864 | > 20 µM | –
WIL2-NS (lymphoid neoplasm, suspension, top dose 20 µM) | 0.74 | 5.15 µM | –
WM35 (melanoma, adherent, top dose 20 µM) | 0.936 | > 20 µM | –
WM278 (melanoma, adherent, top dose 20 µM) | 0.952 | > 20 µM | –
WM793B (melanoma, adherent, top dose 20 µM) | 0.94 | > 20 µM | –
WM1552C (melanoma, adherent, top dose 20 µM) | 0.918 | > 20 µM | –
WM-115 (melanoma, adherent, top dose 20 µM) | 0.836 | 17.7 µM | –
WSU-DLCL2 (B-cell lymphoma, suspension, top dose 20 µM) | 0.916 | > 20 µM | –
WSU-NHL (lymphoid neoplasm, suspension, top dose 20 µM) | 0.971 | > 20 µM | –
YAPC (pancreas, adherent, top dose 20 µM) | 0.975 | > 20 µM | –
YH-13 (glioma, adherent, top dose 20 µM) | 0.933 | > 20 µM | –
YKG-1 (glioma, adherent, top dose 20 µM) | 0.962 | > 20 µM | –
YMB-1-E (breast, adherent) | – | – | AUC (I-BET-762): 0.937; IC50 (I-BET-762): > 20 µM; AUC (KIN001-244): 0.869; IC50 (KIN001-244): > 20 µM; AUC (AV-951): 0.976; IC50 (AV-951): > 0.128 µM
YMB-1-E (breast, adherent, top dose 20 µM) | 0.858 | > 20 µM | –
YT (lymphoid neoplasm, suspension, top dose 20 µM) | 0.362 | 0.553 µM | –
huH-1 (liver, adherent, top dose 20 µM) | 0.981 | > 20 µM | –
no-10 (glioma, adherent, top dose 20 µM) | 0.943 | > 20 µM | –
no-11 (glioma, adherent, top dose 20 µM) | 0.942 | > 20 µM | –

Lines with a small IC50 respond at low doses; where the fit passes the top or lowest dose, that dose stands as a limit. For AUC the same curve is integrated over the 256-fold range of doses and scaled to a fraction: 1 means no effect, lower means more sensitive. For some assays here: An inferred top dose was calculated from the reported fits.
